Self-cleavage data for 84 variants are collected here from the RNAGym collection of RNA variant scans (doi:10.1093/nar/gkz1192).

B1: CPEB3 Ribozyme (parent)
chain: UAACAGGGGGCCACAGCAGAAGCGUUCACGUCGCAGCCCCUGUCAGAUUCUGGUGAAUCUGCGAAUUCUGCUGUAUAUCUC

Read counts are not given, so values of variants with three or more changes are uncertain.

The variants in this data set derive from B1. Description: self-cleavage, relative activity (ratio to wild type); higher = more cleavage; in vitro, sequencing. The procedure, abridged: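 Libraries of CPEB3 self-cleaving ribozyme mutants came from rounds of error-prone PCR and carried barcodes, which DNA sequencing matched to variants. In vitro transcription used T7 RNA polymerase at 37°C for 5 hours, with a further 15 min in DNase I before EDTA stopped the reaction; the ribozymes cleaved during both steps. The RNA was reverse transcribed with template switching and sequenced on Illumina. Relative activity is the cleaved/total read fraction of a variant divided by that of the unmutated ribozyme, averaged over three batches with at least 5 reads.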
On to U1C A5G C11U U72A U76C, for which the self-cleavage came out at 0.28.

As for A2G A18G A28G C68A U72C, the self-cleavage came to 0.07.

As to A2C A64G U76C, the self-cleavage worked out at 0.64.

U1C C11G C12G A35G A75G: the self-cleavage was found to be 0.34.

Regarding A2G A13U A47G, the self-cleavage was 0.21.

On to U1C A13U U25C U60C G73A, for which the self-cleavage is 0.41.

In the case of U1C A21U A28G U31C G33A A65G U69A, the self-cleavage was 0.12.

U1C G42A U54A: the self-cleavage came to 0.29.

Take U1C U31C A45G: the self-cleavage was 0.45.

In the case of A2G A3G C29G C34U U41A G63A U66C, the self-cleavage was found to be 0.09.

U1C U48C U67A U72C: the self-cleavage was found to be 0.21.

Consider A2C A5U C17G G22A A35U C50A, for which the self-cleavage turned out to be 0.2.

For the variant U1C A5G A13G A65G, the self-cleavage is 0.49.

As for U1G A5G U26C G53U A77G, the self-cleavage is 0.49.

Take U1C G8A A18G A35U U49C U60C: the self-cleavage stood at 0.2.

As to A2G A20C U67C, the self-cleavage came to 0.14.

Regarding U1C U26C A65U, the self-cleavage was found to be 0.1.

U1C G7U U25C U43C A57U U80C: the self-cleavage worked out at 0.03.

Consider U1C A21G U25C U60A U78A, for which the self-cleavage is 0.03.

Regarding A2G A3G A28U U54C, the self-cleavage stood at 0.81.

Take U1C A5C G30A U41A U48A C79A: the self-cleavage worked out at 0.05.

In the case of U1C A13C A35U U60G U67A U72C U78C, the self-cleavage is 0.07.

Regarding U1G G8U U48A U67C, the self-cleavage is 0.05.

U1C U41C U69C: the self-cleavage amounted to 0.73.

For U1C A21G U43C U51G G52A A56G U69G, the self-cleavage was determined as 0.02.

For the variant U1C U58C G61C G63A A64G U69A G70U, the self-cleavage was 0.23.

In the case of U1C U48C U69C U72A, the self-cleavage was 0.14.

Turning to U1C C12G U60C A75G, the self-cleavage worked out at 0.08.

In the case of U1C A28C U31C U72A U78G, the self-cleavage turned out to be 0.12.

As for U1C A20U U69A, the self-cleavage was 0.18.

In the case of U1C A21G G33U, the self-cleavage stood at 0.25.

Take A2G A3G G30C U43A: the self-cleavage amounted to 0.06.

On to U1C U31C U66A U72C, for which the self-cleavage was 0.08.

As for U1C A13G A56G, the self-cleavage is 0.61.

With U1C A3G U25C U54C, the self-cleavage was 0.11.

As to U1C A5G A13U G63U A64G, the self-cleavage was found to be 0.73.

As for U1C G9A C39G U54A U69A A75U, the self-cleavage was 0.03.

With U1C G8U A13U U51G, the self-cleavage is 0.32.

Consider A2G A18C G33A U72C U74A, for which the self-cleavage turned out to be 0.39.

In the case of U1C A21U U60A, the self-cleavage worked out at 0.29.

As for U1C A3U C4A C23A U25C A56G, the self-cleavage worked out at 0.14.

Turning to A2C A47G U60C A64G U74A, the self-cleavage is 0.21.

Consider U1C C34U U66A U67C, for which the self-cleavage worked out at 0.17.

As to A2G A13G U41G U69C, the self-cleavage is 0.47.

Take U1C G36A U80C: the self-cleavage came to 0.25.

Take U1C A21U U31A A47G U72A: the self-cleavage stood at 0.

As to A2G A3G A18U G55C, the self-cleavage stood at 0.27.

In the case of A2G A3U A5U U26C U41C A47U U72A, the self-cleavage came out at 0.11.

For A2G A15G U31A U54A, the self-cleavage is 0.48.

On to U1G C11G A65U U72C, for which the self-cleavage was determined as 0.06.

Turning to A2G A20U U26C U60C G73C, the self-cleavage was determined as 0.48.

Consider A2C C38G U74C, for which the self-cleavage was determined as 0.43.

For U1G C4G A5G A13U U54C, the self-cleavage was determined as 1.01.

Regarding U1C A5C U31C U72C, the self-cleavage came out at 0.97.

For U1C G16C U31A, the self-cleavage stood at 0.28.

Consider A2C A5G A28G U48G, for which the self-cleavage came out at 0.12.

Take U1C G36A U58C U80A: the self-cleavage was determined as 0.44.

Turning to U1C A15G U26C A56G U67C G70A U78A, the self-cleavage was 0.09.

Regarding U1C G8U A13G A21G A28U, the self-cleavage was found to be 0.05.

Consider U1C A35G U54C U67A U69C, for which the self-cleavage was determined as 0.52.

A2G A18U U25C U43A U51C U54C: the self-cleavage was found to be 0.04.

U1C A35U C39A A45G A75U U78C: the self-cleavage came out at 0.55.

For U1C U25C C32A U41C A57G U69C, the self-cleavage came to 0.05.

As for U1C A3U A20U U31A A45G U54C, the self-cleavage worked out at 0.06.

With U1G G10A A18G U41C U67C, the self-cleavage came to 0.06.

Turning to U1C A3G G6A U25C, the self-cleavage stood at 0.51.

U1C A18G A21U U60G U69C: the self-cleavage came out at 0.07.

For the variant A2G A18U A45G U49A U69C, the self-cleavage was found to be 0.11.

In the case of U1C A21G U26C, the self-cleavage turned out to be 0.6.

For the variant U1C G7U A21U U54A, the self-cleavage is 0.23.

With A2C A20G U43A A47G A56U U72A, the self-cleavage came out at 0.08.

With U1C A13G U43C A47U, the self-cleavage was found to be 0.53.

For U1C G8C A15G U41A U67C A75G U78G, the self-cleavage was determined as 0.04.

Take U1C A3U C37A U54G: the self-cleavage was 0.08.

For the variant A2G A15U C37U U49C U74C, the self-cleavage came out at 0.07.

Turning to U1C A21C U48C A56U U72C, the self-cleavage was determined as 0.09.

As for U1C A45U U69A U72C U78C, the self-cleavage is 0.14.

Turning to U1C A15G A18G U54A C79A, the self-cleavage came to 0.79.

Consider U1C U31C U54C U78A, for which the self-cleavage amounted to 0.77.

On to A2G A15G U54A, for which the self-cleavage amounted to 0.71.

With U1C A3G U31C, the self-cleavage is 0.91.

U1C A47G U49C: the self-cleavage came out at 0.19.

On to U1C A5C G7U, for which the self-cleavage is 0.52.

As to U1G A5G A20U U25C A47G U54C, the self-cleavage amounted to 0.11.
